# Results reported in a collection of fitness landscapes (doi:10.1126/science.1257360).
# This is one part of the list.
# B1: PhoQ; a variant is named by its letters at X, in order, P23837 (parent)
# chain: MKKLLRLFFPLSLRVRFLLATAAVVLVLSLAYGMVALIGYSVSFDKTTFRLLRGESNLFYTLAKWENNKLHVELPENIDKQSPTMTLIYDENGQLLWAQRDVPWLMKMIQPDWLKSNGFHEIEADVNDTSLLLSGDHSIQQQLQEVREDDDDAEMTHSVAVNVYPATSRMPKLTIVVVDTIPVELKSSYMVWSWFIYVLSANLLLVIPLLWVAAWWSLRPIEALAKEVRELEEHNRELLNPATTRELTSLVRNLNRLLKSERERYDKYRTTLTDLTHSLKTPLXXLQXXLRSLRSEKMSVSDAEPVMLEQISRISQQIGYYLHRASMRGGTLLSRELHPVAPLLDNLTSALNKVYQRKGVNISLDISPEISFVGEQNDFVEVMGNVLDNACKYCLEFVEISARQTDEHLYIVVEDDGPGIPLSKREVIFDRGQRVDTLRPGQGVGLAVAREITEQYEGKIVAGESMLGGARMEVIFGRQHSAPKDE
# Variants of: B1
# Test: enrichment ratio after two sorts for PhoP signalling (ratio (wild type AVST 3.29)); higher = more functional
# Settings: with PhoP (E. coli)
row,Variant,enrichment ratio
1,SGSD,≤ 0.25
2,VDCW,≤ 0.25
3,QLCS,≤ 0.25
4,GVPR,≤ 0.25
5,QYVK,≤ 0.25
6,ILQP,≤ 0.25
7,YKDH,≤ 0.25
8,YRHS,≤ 0.25
9,RWTR,≤ 0.25
10,DRQG,≤ 0.25
11,VIQK,≤ 0.25
12,PAWL,≤ 0.25
13,SAMG,5.01
14,QHNI,8.51
15,ILAY,≤ 0.25
16,DSFC,≤ 0.25
17,NRLF,≤ 0.25
18,RFND,≤ 0.25
19,WEIG,≤ 0.25
20,GMVV,≤ 0.25
21,FMEP,≤ 0.25
22,KLVQ,≤ 0.25
23,TICE,≤ 0.25
24,GTID,≤ 0.25

row,Variant,enrichment ratio
1,GDGA,≤ 0.25
2,PHHS,≤ 0.25
3,QCTR,≤ 0.25
4,YLLG,≤ 0.25
5,THGT,≤ 0.25
6,FQDD,≤ 0.25
7,ICLC,5.6
8,YHTN,≤ 0.25
9,EHPM,≤ 0.25
10,FFDR,≤ 0.25
11,TGGM,≤ 0.25
12,IPYV,≤ 0.25
13,QPFR,0.836
14,YAHI,≤ 0.25
15,RCSS,≤ 0.25
16,TDLE,≤ 0.25
17,VFSL,≤ 0.25
18,ARGR,≤ 0.25
19,ACGM,≤ 0.25
20,NVPL,≤ 0.25
21,LDNL,≤ 0.25
22,GHDR,≤ 0.25
23,YDGE,≤ 0.25
24,RYGF,≤ 0.25

row,Variant,enrichment ratio
1,SYYC,≤ 0.25
2,SSFL,7.53
3,MCYQ,17.2
4,FTQK,≤ 0.25
5,NGTP,≤ 0.25
6,YCIF,≤ 0.25
7,PWDP,≤ 0.25
8,MEFW,≤ 0.25
9,HAPG,≤ 0.25
10,DTRR,≤ 0.25
11,AMRV,≤ 0.25
12,DLDN,≤ 0.25
13,GIQD,≤ 0.25
14,GLLW,≤ 0.25
15,YYLN,≤ 0.25
16,NVWN,≤ 0.25
17,NYGV,≤ 0.25
18,EMGM,≤ 0.25
19,YYLH,≤ 0.25
20,LIPW,≤ 0.25
21,DMRG,≤ 0.25
22,IVPR,≤ 0.25
23,YTYH,≤ 0.25
24,LSIW,≤ 0.25

row,Variant,enrichment ratio
1,MYQR,≤ 0.25
2,KSCV,≤ 0.25
3,WKSN,≤ 0.25
4,KMTT,≤ 0.25
5,TLAG,5.61
6,DIHF,≤ 0.25
7,YMDF,≤ 0.25
8,MCKN,≤ 0.25
9,NERI,≤ 0.25
10,HEPP,≤ 0.25
11,IETA,≤ 0.25
12,QKQS,≤ 0.25
13,NPPR,≤ 0.25
14,QSGT,7.41
15,RLNY,≤ 0.25
16,WRMH,≤ 0.25
17,EYPY,≤ 0.25
18,SPGV,≤ 0.25
19,EAFK,≤ 0.25
20,IWCT,≤ 0.25
21,QRWD,≤ 0.25
22,DSTT,≤ 0.25
23,VICL,≤ 0.25
24,ICMS,2.8

row,Variant,enrichment ratio
1,SMKH,≤ 0.25
2,QQQF,≤ 0.25
3,ASLP,≤ 0.25
4,LGLF,≤ 0.25
5,GWNT,≤ 0.25
6,NFEG,≤ 0.25
7,IHIL,≤ 0.25
8,DHQI,≤ 0.25
9,GHPM,≤ 0.25
10,NKCS,≤ 0.25
11,HCHG,≤ 0.25
12,WHVI,≤ 0.25
13,MDEV,≤ 0.25
14,IMRC,≤ 0.25
15,MSGY,8.56
16,MDIK,≤ 0.25
17,MMIG,≤ 0.25
18,WGWH,≤ 0.25
19,HDDV,≤ 0.25
20,ERWY,≤ 0.25
21,QLYM,≤ 0.25
22,ANTH,6.44
23,ETTH,≤ 0.25
24,GWSQ,≤ 0.25

row,Variant,enrichment ratio
1,QGMW,≤ 0.25
2,WKSI,≤ 0.25
3,NCRG,≤ 0.25
4,FMWM,≤ 0.25
5,NCEW,≤ 0.25
6,RICF,≤ 0.25
7,WSVQ,≤ 0.25
8,FGDS,≤ 0.25
9,RNCQ,≤ 0.25
10,GDPS,≤ 0.25
11,DGWP,≤ 0.25
12,GMSV,6.09
13,MKVV,≤ 0.25
14,DACW,≤ 0.25
15,HRDQ,≤ 0.25
16,WTVN,≤ 0.25
17,TPGC,≤ 0.25
18,RWLR,≤ 0.25
19,EREC,≤ 0.25
20,IQMN,≤ 0.25
21,YCRV,≤ 0.25
22,YKPL,≤ 0.25
23,IKVW,≤ 0.25
24,EDIL,≤ 0.25

row,Variant,enrichment ratio
1,ICCG,≤ 0.25
2,QYYP,≤ 0.25
3,VRIT,≤ 0.25
4,GVMH,6.59
5,GFCI,≤ 0.25
6,MVDF,≤ 0.25
7,IWFR,≤ 0.25
8,NQAY,≤ 0.25
9,SPPG,≤ 0.25
10,MHKR,≤ 0.25
11,YTHL,≤ 0.25
12,WLGH,≤ 0.25
13,RKRD,≤ 0.25
14,PIVM,≤ 0.25
15,TTAE,0.862
16,KLND,≤ 0.25
17,WFYH,≤ 0.25
18,GSGV,1.31
19,HSPN,≤ 0.25
20,INKL,0.269
21,MLAN,≤ 0.25
22,PASF,≤ 0.25
23,VNEW,≤ 0.25
24,HCKS,≤ 0.25

row,Variant,enrichment ratio
1,LDVN,≤ 0.25
2,AHDA,≤ 0.25
3,VFFF,≤ 0.25
4,GEYK,≤ 0.25
5,PFAR,≤ 0.25
6,NPAN,≤ 0.25
7,WESH,≤ 0.25
8,RSCP,≤ 0.25
9,WDHV,≤ 0.25
10,LRCF,≤ 0.25
11,GATP,≤ 0.25
12,TYHK,≤ 0.25
13,LCHQ,≤ 0.25
14,PHVT,≤ 0.25
15,AWQL,≤ 0.25
16,FWIV,≤ 0.25
17,IFHI,≤ 0.25
18,RNGR,≤ 0.25
19,MQLK,≤ 0.25
20,SNEH,≤ 0.25
21,NSKA,≤ 0.25
22,IWNS,≤ 0.25
23,IRWD,≤ 0.25
24,ETTV,≤ 0.25

row,Variant,enrichment ratio
1,DVPM,≤ 0.25
2,EFHN,≤ 0.25
3,TWKS,≤ 0.25
4,NCIT,≤ 0.25
5,DFHL,≤ 0.25
6,YVQS,≤ 0.25
7,VYST,≤ 0.25
8,YLWF,≤ 0.25
9,YPWF,≤ 0.25
10,KLFV,≤ 0.25
11,RQWS,≤ 0.25
12,AMVK,3.1
13,KGQI,≤ 0.25
14,FAIR,≤ 0.25
15,PFKD,≤ 0.25
16,TLIT,≤ 0.25
17,LNNS,≤ 0.25
18,PMWP,≤ 0.25
19,YPNM,≤ 0.25
20,GDKR,≤ 0.25
21,VAIH,≤ 0.25
22,GTHM,≤ 0.25
23,LTDE,≤ 0.25
24,KTPQ,≤ 0.25

row,Variant,enrichment ratio
1,RFMV,≤ 0.25
2,HWWD,≤ 0.25
3,TYFN,≤ 0.25
4,SLID,≤ 0.25
5,MCPL,≤ 0.25
6,AQVM,8.43
7,VENC,≤ 0.25
8,NSGA,≤ 0.25
9,IKHP,≤ 0.25
10,RISN,≤ 0.25
11,AKSK,≤ 0.25
12,QITC,≤ 0.25
13,LKMH,≤ 0.25
14,RHEY,≤ 0.25
15,FHGM,≤ 0.25
16,RIYE,≤ 0.25
17,KTTD,≤ 0.25
18,RYAL,≤ 0.25
19,YAPV,≤ 0.25
20,WDGE,≤ 0.25
21,TWMA,≤ 0.25
22,MRCA,≤ 0.25
23,SCMW,6.03
24,YDWI,≤ 0.25

row,Variant,enrichment ratio
1,CHHL,≤ 0.25
2,KHQN,≤ 0.25
3,CPSN,≤ 0.25
4,HYHD,≤ 0.25
5,DWPH,≤ 0.25
6,HWTC,≤ 0.25
7,FMSR,≤ 0.25
8,KYQH,≤ 0.25
9,LCPQ,≤ 0.25
10,GWYD,≤ 0.25
11,QIGV,≤ 0.25
12,MVHP,0.338
13,AYYT,≤ 0.25
14,NVLV,≤ 0.25
15,EEAR,≤ 0.25
16,FGFW,≤ 0.25
17,YYCE,≤ 0.25
18,SAIM,11.6
19,FMDL,≤ 0.25
20,DITR,≤ 0.25
21,ISTY,≤ 0.25
22,VFMP,≤ 0.25
23,NIAN,≤ 0.25
24,IMCQ,≤ 0.25

row,Variant,enrichment ratio
1,ETFE,≤ 0.25
2,PDYS,≤ 0.25
3,FYDW,≤ 0.25
4,TYWQ,≤ 0.25
5,RNDN,≤ 0.25
6,FMFF,≤ 0.25
7,VDAE,≤ 0.25
8,VTRQ,≤ 0.25
9,RNSW,≤ 0.25
10,HFEA,≤ 0.25
11,PFMC,≤ 0.25
12,TPNG,≤ 0.25
13,MGGI,2.78
14,NKVW,≤ 0.25
15,KAWC,≤ 0.25
16,LNDC,≤ 0.25
17,KCLT,≤ 0.25
18,WVIC,≤ 0.25
19,FRFD,≤ 0.25
20,AKDC,≤ 0.25
21,YQRW,≤ 0.25
22,PTHN,≤ 0.25
23,QHAY,≤ 0.25
24,FRLS,≤ 0.25

row,Variant,enrichment ratio
1,RYVD,≤ 0.25
2,IDMI,≤ 0.25
3,IIIV,≤ 0.25
4,MKWI,≤ 0.25
5,SENT,2.04
6,RELS,0.575
7,VPVV,≤ 0.25
8,FYCH,≤ 0.25
9,RLAK,≤ 0.25
10,RPKV,≤ 0.25
11,YYVR,≤ 0.25
12,IYYY,≤ 0.25
13,ECTS,≤ 0.25
14,FWLR,≤ 0.25
15,YNIV,≤ 0.25
16,STNK,≤ 0.25
17,VLRT,≤ 0.25
18,NFTH,≤ 0.25
